62 molecules from PubChem BioAssay AID1508623 (National Center for Advancing Translational Sciences (NCATS), 2021) can be followed below.

Screen size: about 48,000 compounds; about 450 (0.94%) were called active. About 19% were inconclusive and are not listed. Calls come from the whole dose curve; as a rule, active = well fitted inhibition curve with a large enough effect; inconclusive = small, poorly fitted or top-dose-only effect; inactive = no such curve, though single readings can be large or run the other way. The list shows a part of the results.

The experiment is described as follows: Primary qHTS for Identification of Small Molecule Inhibitors of Huntingtin Promoter Activity. Note: nearly all actives have a fitted effect of over 50% in size. As to conditions: HEK293 HTT promoter firefly luciferase reporter (activity 0% = vehicle and -100% = no light), 24 h; series mostly up to 57.5 µM; activity change, negative = inhibition: at the top concentration. In short, it runs like this: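 HEK293 cells carrying firefly luciferase reporters were seeded at 2,500 per well in Opti-MEM and cultured for 24 h. They were then treated with compounds at up to 57.5 uM final for 24 h at 37 degrees C before Dual-Glo luminescence readout.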
For orientation: qHTS replaces the single test concentration by a dilution series.
Take `COc1ccc(-c2nc3scc(CCNC(=O)c4cc(OC)cc(OC)c4)n3n2)cc1`: the activity change, negative = inhibition is inactive: -9.61% [at 11.5 µM]. Next, `CC(C)N1CCc2nc(SCC(=O)Nc3cccc(F)c3)[nH]c(=O)c2C1`: inactive: -1.89%.

Take `CCOc1ccc(C(=O)OCc2cc(=O)n3cc(C)sc3n2)cc1`: the “activity change, negative = inhibition” value is inactive: -0.931%. As to `CCCCCn1cc2c(c1-c1ccc(Cl)cc1)c(=O)n(C)c(=O)n2C`, the “activity change, negative = inhibition” value was inactive: -6.63%. For `COc1ccccc1NC(=O)c1sc2ncn(Cc3ccccc3Cl)c(=O)c2c1C`, the “activity change, negative = inhibition” value was inactive: -0.593%. As for `COC(=O)c1cccc(Nc2nn3c(=O)c4cc5c(cc4nc3s2)OCO5)c1`, the “activity change, negative = inhibition” value is inactive: -1.52%. In the case of `COc1ccc(S(=O)(=O)NCC(c2ccc(N(C)C)cc2)N2CCOCC2)cc1` (configuration not stated), the “activity change, negative = inhibition” value was inactive: -8.52%.

For `Cc1ccc2[nH]c3c(=O)n(CC(=O)NC(C)C)ncc3c2c1`, the “activity change, negative = inhibition” value was inactive: 0.23%. As to `COC(=O)Nc1nc2ccc(Sc3ccccc3)cc2[nH]1`, the activity change, negative = inhibition entry is “inactive”. Turning to `COc1ccc(CNC(=O)CSc2ncc(S(=O)(=O)c3ccc(Br)cc3)c(=O)[nH]2)cc1`, the “activity change, negative = inhibition” value was inactive: -11.5%. Under `O=C(CSC1=Nc2ccccc2N=C(c2ccc(F)cc2)C1)NCc1ccccc1Cl` stands inactive: -24.5%.

Take `Cc1nn(-c2ccc(N3CCOCC3)nn2)c(C)c1CCC(=O)NCc1ccccc1F`: the “activity change, negative = inhibition” value is inactive: -23%.

As to `O=C(O)c1cn(C2CC2)c2cc(N3CCNCC3)c(F)cc2c1=O`, the activity change, negative = inhibition entry is “inactive”.

As for `CCOc1ccc(CNC(=O)c2sc3ncnc(N(C)C4CCCCC4)c3c2C)cc1`, the “activity change, negative = inhibition” value is inactive: -29.8%.

For `NC(=O)c1ccccc1NC(=O)Cn1nc(Cc2cccnc2)c2ccccc2c1=O`, the “activity change, negative = inhibition” value was inactive: -16.3%.

Take `O=C(CSc1ncc(CO)n1Cc1ccc(Cl)cc1)NCc1ccc(F)cc1`: the “activity change, negative = inhibition” value is inactive: -17.1%. Consider `COc1ccc(C(=O)Oc2cc(-c3ccc4c(c3)OCO4)cc(=O)c3c(C)oc(C)c23)cc1`, for which the “activity change, negative = inhibition” value was inactive: -1.06%. As to `Cc1cccc(NC(=O)CSc2nc(=O)n(Cc3ccccn3)c3c2CCC3)c1C`, the “activity change, negative = inhibition” value was inactive: -17.9%. Under `Cc1ccc(Cl)cc1NC(=O)CSc1nc2c(c(=O)[nH]1)CN(Cc1ccccc1)CC2` stands inactive: -13.1%; under `COC(=O)c1cc2oc(C)cc2n1CC(=O)Nc1cc(Cl)ccc1OC`, inactive: -7.88%. `CCOC(=O)c1ccc(NC(=O)CCc2c(C)nc3c(-c4ccc(F)cc4)c(C)nn3c2C)cc1`: the “activity change, negative = inhibition” value was inactive: -10.3%.

Consider `Cc1ccc(-c2onc(C)c2C)cc1S(=O)(=O)Nc1ccc(Cl)cn1`, for which the “activity change, negative = inhibition” value is inactive: 0.526%. Turning to `Cc1ccccc1C(=O)Nc1ccc(C(=O)OCc2cc(=O)n3nc(C(C)C)sc3n2)cc1`, the “activity change, negative = inhibition” value is inactive: 0.194%. Under `COc1ccc(NC(=O)C2Cc3ccccc3N2C(=O)c2ccccc2)cc1OC` (configuration not stated) stands inactive: -19.3%. Take `CCOc1ccc(NC(=O)N(C(C)C)C2CCN(C(C)=O)CC2)cc1`: the “activity change, negative = inhibition” value was inactive: -17.2%. In the case of `Cc1cccc(NC(=O)CSc2nc3c(oc4ccccc43)c(=O)n2-c2ccc(F)cc2)c1`, the “activity change, negative = inhibition” value is inactive: -9.91%. Under `COc1ccc(Nc2cc(C(=O)NCc3ccccc3)c3ccccc3n2)c(OC)c1` stands inactive: 5.82%; under `O=S(=O)(c1ccc2nc(N3CCN(c4ccccc4)CC3)ccc2c1)N1CCCCC1`, inactive: -17.1%. Turning to `COc1ccc(-c2noc(-c3cccc(OC)c3OC)n2)cc1`, the “activity change, negative = inhibition” value was inactive: 44.5%.

Regarding `CCOc1ccc(-c2cn3c(n2)sc2cc(C(=O)NC4CCCc5ccccc54)ccc23)cc1` (configuration not stated), the “activity change, negative = inhibition” value is inactive: -12.7%. With `Cc1ccc(NC(=O)CC(C)S(=O)(=O)c2ccc3c(c2)NC(=O)CO3)cc1C` (configuration not stated), the “activity change, negative = inhibition” value is inactive: 1.19%.

On to `COc1ccc(NC(=O)c2cn3c4c(ccc(Cl)c4c2=O)OC(C)C3)cc1OC` (configuration not stated), for which the “activity change, negative = inhibition” value was inactive: -11%. Take `CSc1ncc(C(=O)Nc2ccc(C(C)=O)cc2)c(-c2ccccc2)n1`: the “activity change, negative = inhibition” value is inactive: 37.4%. Next, `CCOc1ccc2nc(NC(=O)c3cc(=O)c4cc(C)cc(C)c4o3)sc2c1`: inactive: 0%. Next, `O=c1c2cnn(-c3ccc(F)cc3)c2ncn1Cc1ccc(F)cc1`: inactive: -29.9%; `COc1ccc(Cl)cc1NC(=O)Cn1cc2c(n1)CCC(C)C2` (configuration not stated): inactive: -29.7%; `CSc1nnc2[nH]c(=O)cc(C)n12`: inactive: -2.93%. As for `COc1ccc(CNC(=O)C2Cc3cc(S(=O)(=O)N4CCCCCC4)ccc3N2C(C)=O)cc1` (configuration not stated), the “activity change, negative = inhibition” value was inactive: -0.934%. In the case of `CCc1ccc(NC(=O)c2cc3c([nH]c2=O)CC(C)(C)CC3=O)cc1`, the “activity change, negative = inhibition” value was inactive: 32.9%. As to `COc1ccc(CNC(=O)c2ccc(-c3nc(CSc4ccccc4)c(C)o3)cc2)c(OC)c1`, the “activity change, negative = inhibition” value is inactive: -14.1%. Consider `CCOc1ccc2oc(=O)cc(CN3CCN(c4ccccc4)CC3)c2c1`, for which the “activity change, negative = inhibition” value was inactive: -22%.

Take `N#Cc1c[nH]n2c(NC3CCCCC3)c(-c3cccc(Cl)c3)nc12`: the “activity change, negative = inhibition” value was inactive: 11.6%. Take `COc1ccc(CCN2C(=O)N(c3ccccc3)C(=O)C2CC(=O)Nc2ccccc2)cc1` (configuration not stated): the “activity change, negative = inhibition” value is inactive: -26.1%.

As to `Cc1ccc(-c2nc(C)c(CCNC(=O)C(=O)Nc3ccc4c(c3)OCO4)s2)cc1`, the “activity change, negative = inhibition” value is inactive: 5.24%. In the case of `CCOC(=O)C1CCN(CCC(=O)Nc2ccc(OC)cc2)CC1`, the “activity change, negative = inhibition” value is inactive: -16.9%. Regarding `Cc1nc(N2CCOCC2)c2c(C(=O)N3CCN(c4cccc(C)c4C)CC3)c(C)oc2n1`, the “activity change, negative = inhibition” value is inactive: -26.4%.

For `COc1cc(C(=O)N2CC(=O)Nc3ccc(C)cc3C2c2ccc(F)cc2)cc(OC)c1OC` (configuration not stated), the “activity change, negative = inhibition” value was inactive: -10%.

Regarding `Cc1cc(C)c(NC(=O)CCC(=O)N2Cc3ccccc3Oc3ncccc32)c(C)c1`, the “activity change, negative = inhibition” value was inactive: -14.6%.

Regarding `COC(=O)c1ccccc1NC(=O)Cn1c(=O)n(CCCC(=O)NCCc2ccc(OC)c(OC)c2)c(=O)c2ccccc21`, the “activity change, negative = inhibition” value is inactive: -5.35%. Under `CCCOc1ccc(C2c3c(oc4ccccc4c3=O)C(=O)N2c2nc(C)c(C(=O)OCC)s2)cc1` (configuration not stated) stands inactive: -11.7% [at 11.5 µM]. As for `COc1ccc(S(=O)(=O)NCc2ccc(C(=O)NCc3ccccc3)cc2)cc1`, the “activity change, negative = inhibition” value is inactive: -14.7%. On to `CC(C)c1ccc(NC(=O)C2(C)Cc3ccccc3C(=O)O2)cc1` (configuration not stated), for which the “activity change, negative = inhibition” value is inactive: 25.4%. Turning to `CN1c2cc(O)c(N=NC(N)=O)cc2CC1S(=O)(=O)O` (configuration not stated), the “activity change, negative = inhibition” value is inactive: 6.04%.

With `Cc1ccc2c(c1)-c1c(cnn1CC(=O)N1CCN(c3cc(Cl)ccc3C)CC1)CO2`, the “activity change, negative = inhibition” value is inactive: -15.5%.

`CC(C)C(NS(=O)(=O)c1cccc2cccnc12)C(=O)Nc1ccc(OC(F)(F)F)cc1` (configuration not stated): the “activity change, negative = inhibition” value is inactive: -21.4%. Consider `O=C(c1ccccc1)c1ccc2nc(Nc3cc(Cl)ccc3O)c3nncn3c2c1`, for which the “activity change, negative = inhibition” value was inactive: -11.2%. Under `COc1cccc(CNC(=O)c2cc(-c3cccc(OC)c3)n[nH]2)c1` stands inactive: 48%. As for `CCOc1ccc(NS(=O)(=O)c2ccc(N)cc2)nn1`, the “activity change, negative = inhibition” value was inactive: 11%.

Turning to `Cc1ccc(N2CCN(C(=O)CCc3c(C)nc4c(c3C)c(=O)n(C)c(=O)n4C)CC2)c(C)c1`, the “activity change, negative = inhibition” value is inactive: -13.9%. Turning to `O=C(CCn1cnc2ccccc2c1=O)NCc1ccccc1`, the “activity change, negative = inhibition” value is inactive: 1.4%.

With `CCCSCCCNC(=O)CN1C(=O)COc2ccc(S(=O)(=O)N3CCC(C)CC3)cc21`, the “activity change, negative = inhibition” value was inactive: -19.3%. For `CN1C(=O)Cc2cc(S(=O)(=O)CCC(=O)Nc3ccccc3)ccc21`, the “activity change, negative = inhibition” value is inactive: -15.7%.
